In PubChem BioAssay AID485294 (National Center for Advancing Translational Sciences (NCATS), 2010):
Hit rate of the full screen: of about 370,000 compounds, about 150 (0.041%) were called active. Inconclusive results, whose numbers are uncertain, are shown with a selection of clear calls. Calls follow the shape of the dose curve; as a rule, active = well fitted inhibition curve with a large enough effect; inconclusive = small, poorly fitted or top-dose-only effect; inactive = flat fitted curve, though single readings scatter. No potency is given beside an inconclusive call; the fits are too rough.

The molecules below were run against Beta-lactamase (Escherichia coli (strain K12)) (UniProt P00811) (assay: qHTS Inhibitors of AmpC Beta-Lactamase (assay with detergent)). Conditions: AmpC hydrolysis of nitrocefin, absorbance 480 nm, 0.01% Triton; series mostly up to 114 µM.
UniProt P00811, sequence (P00811 whole entry, looked up): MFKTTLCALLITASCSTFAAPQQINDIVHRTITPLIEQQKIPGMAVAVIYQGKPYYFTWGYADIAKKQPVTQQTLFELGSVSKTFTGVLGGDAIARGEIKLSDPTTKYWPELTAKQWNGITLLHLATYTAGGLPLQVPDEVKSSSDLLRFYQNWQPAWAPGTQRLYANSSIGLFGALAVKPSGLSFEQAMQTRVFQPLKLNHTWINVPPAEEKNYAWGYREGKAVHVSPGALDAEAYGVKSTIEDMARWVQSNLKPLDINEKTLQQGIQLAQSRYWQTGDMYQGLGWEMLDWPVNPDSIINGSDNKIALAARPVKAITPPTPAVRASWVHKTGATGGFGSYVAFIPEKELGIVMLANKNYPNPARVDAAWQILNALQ
How it was run: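 20 mM phosphate pH 7.0 + 0.01% (detergent screen) or 0.0001% Triton X-100; 5.3 nM AmpC reagent; cpd preinc 15 min RT; nitrocefin (800 uM stock) to start; A480 q20 s × 4 min; Activity was normalised to no-enzyme and no-compound control wells.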
Also: nearly all actives have a fitted effect of over 25% in size.
Potency is read from the fitted curve at half-maximal effect; tags tell the direction and shape of the fitted curve.

Row | SMILES | Potency
1 | O=C(NCc1ccccc1)c1cc(-c2ccncc2)nc2ccc(S(=O)(=O)N3CCOCC3)cc12 | inconclusive [inhibitor, full curve, poor fit]
2 | COCCCNC(=S)N1CCN(S(C)(=O)=O)CC1 | inconclusive [inhibitor, partial curve]
3 | C=CCN1C(=O)c2ccc(C(=O)N3CCN(S(=O)(=O)c4cccc(Cl)c4)CC3)cc2C1=O | inconclusive [inhibitor, partial curve]
4 | CC(C)Cc1nnc(NC(=O)CCC(=O)N2CCN(Cc3ccc(Cl)cc3)CC2)s1 | inconclusive [inhibitor, full curve, poor fit]
5 | CCCn1cc(SCC(=O)Nc2ccc3c(c2)OCO3)c2ccccc21 | inconclusive [inhibitor, full curve, poor fit]
6 | COc1cccc(C(=O)/C=C/c2ccc(OCC#N)c(OC)c2)c1 | inactive
7 | Cc1ccc(-c2nnc(-c3ccc4c(c3)OCO4)o2)cc1 | inconclusive [inhibitor, full curve]
8 | C=CCn1c(O)c(/C=N/N2CCOCC2)c(=O)[nH]c1=S | inconclusive [inhibitor, full curve, poor fit]
9 | CC(C)OP(C)(=O)CN1CCN(CP(C)(=O)OC(C)C)CC1 (stereo not drawn) | inconclusive [inhibitor, partial curve, poor fit]
10 | CCOc1ccc(NC(=O)c2oc3ccccc3c2NC(=O)Cc2cccs2)cc1 | inactive
11 | C#CCOCCOCCOCCNc1nc(N2CCOCC2)nc(N2CCN(C(=O)CCCCCCCCCCNC(=O)[C@H]([C@@H](C)CC)n3cc(CCCCN=C(N)N)nn3)CC2)n1 | inactive
12 | COC(=O)c1c(C)[nH]c(C(=O)COC(=O)Cn2cc(C(F)(F)F)ccc2=O)c1C | inconclusive [inhibitor, single point]
13 | Cc1ccc(C2=NNC(c3cccc(F)c3)S2)cc1 (stereo not drawn) | inconclusive [inhibitor, single point]
14 | O=C(NCC1CCCO1)C1CC(=O)N(c2ccccc2)C1 (stereo not drawn) | inactive
15 | O=C(C1CC(=O)N(c2ccc(Cl)cc2)C1)N1CCC(c2nc3ccccc3[nH]2)CC1 (stereo not drawn) | inconclusive [inhibitor, single point]
16 | CCOC(=O)C1CCCN(Cc2c(C(=O)N3CCCCC3)nc3c(C)cccn23)C1 (stereo not drawn) | inactive
17 | O=C(NCc1ccccc1)C1CCCN(S(=O)(=O)c2ccc(F)cc2)C1 (stereo not drawn) | inactive
18 | COCCNC(=O)/C(C#N)=C/C=C/c1ccccc1 | inactive
19 | COc1ccccc1C(O)P(=O)(OC(C)C)c1ccc(N(C)C)cc1 (stereo not drawn) | inconclusive [inhibitor, single point]
20 | CCCCNc1cc(N2CCN(C3CCCCC3)CC2)c2noc3c2c1C(=O)c1ccccc1-3 | inactive
21 | N=c1c(-c2nc3ccccc3[nH]2)cc(C(=O)c2ccco2)nn1-c1ccccc1 | inconclusive [inhibitor, full curve, poor fit]
22 | CCOC(=O)C1CCCN(C(=S)NC(=O)c2cc(Br)ccc2Cl)C1 (stereo not drawn) | inconclusive [inhibitor, full curve, poor fit]
23 | CCn1c(Cc2ccccc2)nnc1SCC(=O)N1CCCCC1 | inconclusive [inhibitor, partial curve]

Row | SMILES | Potency
24 | Cc1cc(NC(=O)CSCC(=O)OC(C)C(=O)c2cc(C)c(C)cc2C)no1 (stereo not drawn) | inconclusive [inhibitor, single point]
25 | CCCCn1c(N)c(N(Cc2ccccc2OC)C(=O)c2cc(CC)c(C)s2)c(=O)[nH]c1=O | inconclusive [inhibitor, full curve, poor fit]
26 | COc1ccc(C(=O)Nc2cc(C)on2)c(OC)c1 | inconclusive [inhibitor, full curve, poor fit]
27 | COc1ccc(C(=O)C(OC(=O)c2ccccc2Cl)c2ccccc2)cc1 (stereo not drawn) | inconclusive [inhibitor, partial curve, poor fit]
28 | Cc1ccc(-n2c(SCc3nnc4n3CCC4)nnc2-c2ccccc2)cc1 | inconclusive [inhibitor, full curve, poor fit]
29 | CCOc1cccc2sc(N(CCN(CC)CC)C(=O)c3cccc(N4C(=O)CCC4=O)c3)nc12 | inconclusive [inhibitor, full curve]
30 | COc1ccccc1CNC(=O)c1cc(-c2ccccc2C)n(CC2CC(c3cccc([N+](=O)[O-])c3)=NO2)n1 (stereo not drawn) | inactive
31 | O=C(NCCc1ccccc1)C(=O)Nc1ccc2c(c1)OCCO2 | inactive
32 | CCOC(=O)c1ccc(NC(=O)COc2cc(=O)n(CC)c3ccccc23)cc1 | inconclusive [inhibitor, full curve]
33 | O=C(C1CC1)N1CCN(c2ccnc3cc(Cl)ccc23)CC1 | inconclusive [inhibitor, partial curve]
34 | COc1ccccc1OCC(=O)NCCNC(=O)COc1ccccc1OC | inconclusive [inhibitor, full curve, poor fit]
35 | CCOc1cc(-c2ccc(OC(=O)c3ccc(Cl)cc3)c(OC)c2)cc(=O)c2c(C)oc(C)c12 | inactive
36 | NC(=O)CC1SC(N)=NC1=O (stereo not drawn) | inconclusive [inhibitor, single point]
37 | CCOC(=O)c1cnc(=O)[nH]c1C | inconclusive [inhibitor, full curve, poor fit]
38 | O=C(Nc1cccc(F)c1)c1cccnc1NCCc1ccccc1 | inconclusive [inhibitor, full curve, poor fit]
39 | O=C(N/N=C/c1cc(Br)ccc1O)c1cccc(N2CCCC2=O)c1 | inconclusive [inhibitor, partial curve]
40 | COc1ccc(C(=O)CN(C(=O)c2ccc(Cl)cc2)N2C(=O)C3CCCCC3C2=O)cc1 (stereo not drawn) | inconclusive [inhibitor, partial curve, poor fit]
41 | CCN(CC)CCCNC(=S)N(Cc1cccs1)Cc1cc2cc3c(cc2[nH]c1=O)OCCO3 | inactive
42 | Cc1ccc(S(=O)(=O)Nc2cccc(C(=O)NCc3ccc(S(N)(=O)=O)cc3)c2)cc1 | inactive
43 | COc1cc(S(=O)(=O)NCc2ccncc2)ccc1Br | inconclusive [inhibitor, full curve]
44 | CC(C)=CC(=O)O[C@H]1[C@@H]2[C@H](C)C(=O)O[C@@H]2C[C@@H](C)[C@@H]2[C@@H](O)CC(=O)[C@]21C | inactive
45 | Cc1cc(C)n(-c2nc3ccccc3c(=O)n2OCC(N)=O)n1 | inactive
46 | COc1ccc(C(=O)N2CCC(O)(c3ccc(F)cc3)CC2)cc1OC | inconclusive [inhibitor, full curve]

Row | SMILES | Potency
47 | O=C(Cc1ccsc1-c1ccccc1)NO | inactive
48 | CC(=O)c1cccc(NC(=O)COC(=O)Cc2ccc(Cl)cc2)c1 | inconclusive [inhibitor, partial curve]
49 | Cc1cc(C)n2nc(SCn3nnc4ccccc4c3=O)nc2n1 | inconclusive [inhibitor, partial curve, poor fit]
50 | COCCN(C(=O)c1snc(C(N)=O)c1N)C(C(=O)NC1CCCCC1)c1ccc(N(C)C)cc1 (stereo not drawn) | inconclusive [inhibitor, full curve, poor fit]
51 | O=C(CS(=O)(=O)c1ccccc1)Nc1nnc(-c2cccs2)o1 | inconclusive [inhibitor, full curve, poor fit]
52 | CCN(C(=O)COC(=O)COc1ccc(Cl)c(C)c1)C1CCS(=O)(=O)C1 (stereo not drawn) | inconclusive [inhibitor, full curve, poor fit]
53 | O=C(C1CCN(C2CCN(Cc3ccc4c(c3)CCO4)CC2)CC1)N1CCOCC1 | inactive
54 | Cc1ccc(CSc2nnc(-c3cccc(S(=O)(=O)N4CCOCC4)c3)n2C2CCCC2)cc1 | inactive
55 | CCOC(=O)c1ccccc1NC(=O)c1cccs1 | inconclusive [inhibitor, full curve, poor fit]
56 | CC(C)=CC(=O)Nc1nnc(C(C)C)s1 | inconclusive [inhibitor, partial curve]
57 | CCOc1ccc(CN(C)C(C)C(=O)Nc2ccc([N+](=O)[O-])cc2Cl)cc1OC (stereo not drawn) | inconclusive [inhibitor, partial curve]
58 | COC(=O)COc1ccc(S(=O)(=O)NCCC2=CCCCC2)cc1 | inactive
59 | COc1ccc(NC(=O)c2cc(S(=O)(=O)N3CCc4ccccc43)cn2C)cc1 | inconclusive [inhibitor, full curve, poor fit]
60 | COC(=O)C1=C(C)NC(=O)/C1=C\c1cc(C)n(-c2cccc(C)c2)c1C | inactive
61 | O=C(COc1ccccc1F)Nc1ccc2c(c1)OCCO2 | inactive
62 | CC(=O)Oc1ccc(N2C(=O)C3C4C=CC(CO)(O4)C3C2=O)cc1 (stereo not drawn) | inconclusive [inhibitor, full curve, poor fit]
63 | CCCOc1ccc(NC(=O)CC2C(=O)N(c3cccc(C)c3)C(=O)N2CCc2ccncc2)cc1 (stereo not drawn) | inactive
64 | O=C(Nc1ccccc1-c1ccccc1)C(c1ccccc1)c1ccccc1 | inconclusive [inhibitor, partial curve, poor fit]
65 | Cc1cccc(CSC(Nc2ccc(F)cc2)=C(C#N)C#N)c1 | inactive
66 | O=C(Nc1ccc(Cl)cc1)Nc1ccc(Cl)c(Cl)c1 | inactive
67 | Cc1oc(-c2ccccc2)nc1CNS(=O)(=O)c1ccc(Cl)cc1 | inactive
68 | COc1ccc(C(=O)NC2CC2)cc1OC1CCN(Cc2cc(C)c(C)cc2C)CC1 | inactive
